Assay results published in PubChem BioAssay AID485294 (National Center for Advancing Translational Sciences (NCATS), 2010).
About 150 (0.041%) of roughly 370,000 compounds were called active. Inconclusive means that the source gave no clear call. Such entries were picked first, then a sample of the others. The call rests on the fitted dose curve; in most records, active means well fitted inhibition curve with a large enough effect; inconclusive means small, poorly fitted or top-dose-only effect; inactive means flat fitted curve, though single readings scatter. Potencies of inconclusive entries are left out as doubtful fits.

target: Beta-lactamase (Escherichia coli (strain K12)) (UniProt P00811); test: qHTS Inhibitors of AmpC Beta-Lactamase (assay with detergent); settings: AmpC hydrolysis of nitrocefin, absorbance 480 nm, 0.01% Triton; activity change, negative = inhibition: at 114 µM (top of the series); further: nearly all actives have a fitted effect of over 25% in size;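 on activity change, negative = inhibition: 0% = no-compound wells and -100% = no-enzyme wells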
UniProt P00811, sequence (P00811 whole entry, looked up): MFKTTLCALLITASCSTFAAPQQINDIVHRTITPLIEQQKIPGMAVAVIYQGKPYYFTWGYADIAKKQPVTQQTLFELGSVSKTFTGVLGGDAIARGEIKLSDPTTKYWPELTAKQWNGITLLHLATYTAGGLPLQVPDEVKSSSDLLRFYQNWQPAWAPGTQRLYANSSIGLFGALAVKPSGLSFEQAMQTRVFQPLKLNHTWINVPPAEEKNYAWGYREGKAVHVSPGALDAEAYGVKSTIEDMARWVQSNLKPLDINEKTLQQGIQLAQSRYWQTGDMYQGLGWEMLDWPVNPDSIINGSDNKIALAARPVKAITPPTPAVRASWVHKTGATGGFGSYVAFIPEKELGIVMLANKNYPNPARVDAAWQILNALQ
Method in brief: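 20 mM phosphate pH 7.0 + 0.01% (detergent screen) or 0.0001% Triton X-100; 5.3 nM AmpC reagent; cpd preinc 15 min RT; nitrocefin (800 uM stock) to start; A480 q20 s × 4 min; Activity was normalised to no-enzyme and no-compound control wells.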
Potency means the concentration at half of the fitted maximal effect; tags describe the fitted curve by direction and shape.

Row | SMILES | activity change, negative = inhibition | Potency
1 | O=C(Nc1nccs1)c1ccc(N2C(=O)C3CCCCC3C2=O)cc1 (stereo unspecified) | inactive: -9.32% | –
2 | Cc1ccc(OCCOCCn2ccnc2)c(Br)c1 | inactive: -2.14% | –
3 | C=CCOc1ccc(/C=C/C(=O)OCC(=O)NCCCc2ccccc2)cc1 | – | inconclusive [inhibitor, full curve, poor fit]
4 | Clc1ccc(-c2nnc(-c3ccc(Br)cc3)c(N3CCSCC3)n2)cc1 | inactive: 4.23% | –
5 | COC(=O)c1ccc(C(C(=O)NCc2ccccc2)N(Cc2cccs2)C(=O)c2cnccn2)cc1 (stereo unspecified) | inactive: -1.06% | –
6 | CCCCOc1ccc(C(=O)NCCc2cccs2)cc1 | inactive: 8.21% | –
7 | O=C1c2ccccc2C(=O)N1OCCOCCOCCBr | – | inconclusive [inhibitor, full curve]
8 | COc1ccccc1OCC(O)Cn1c(Br)nc2c1c(=O)[nH]c(=O)n2C (stereo unspecified) | – | inconclusive [inhibitor, partial curve, poor fit]
9 | COc1ccc(NC(=O)c2ccccc2NS(=O)(=O)c2ccc(CNC(C)=O)cc2)c(OC)c1 | – | inconclusive [inhibitor, partial curve]
10 | Cc1ccc(Nc2nnc(SCn3nnc4ccccc4c3=O)s2)cc1 | – | inconclusive [inhibitor, full curve]
11 | COc1ccc(CNCC(O)(c2ccccc2)c2ccc(F)cc2)cc1 (stereo unspecified) | inactive: -12.6% | –
12 | COc1ccc2cc3c(N)nn(C(=O)C4CCC(C(C)(C)C)CC4)c3nc2c1 (stereo unspecified) | – | inconclusive [inhibitor, partial curve, poor fit]
13 | CC(C)Sc1oc(-c2ccco2)nc1S(=O)(=O)c1ccccc1 | inactive: -15.8% | –
14 | Cc1c(C(=O)N(C)C)c2cc(Cl)ccc2n1O | – | inconclusive [inhibitor, full curve]
15 | CC(C)c1ccc(S(=O)(=O)NCc2ccc3c(c2)OCO3)cc1 | – | inconclusive [inhibitor, full curve, poor fit]
16 | N/C(=N\OC(=O)C(c1ccccc1)c1ccccc1)c1ccccn1 | inactive: -1.31% | –
17 | Cc1cc(C)cc(C(=O)Nc2c3c(nn2-c2ccccc2C)CS(=O)(=O)C3)c1 | inactive: 1.64% | –
18 | CCOC(=O)c1c(-c2ccccc2)csc1NC(=O)c1cc(-c2cccc(OC)c2)on1 | inactive: 18.7% | –
19 | Cc1cc(OC(=O)c2ccc(S(=O)(=O)N3CCCC3)cc2)c([N+](=O)[O-])c(=O)[nH]1 | – | inconclusive [inhibitor, single point]
20 | CCOc1ccc(N2C(=O)CC(NCCc3ccncc3)C2=O)cc1 (stereo unspecified) | – | inconclusive [inhibitor, full curve, poor fit]
21 | O=C(Nc1ccc(N2CCOCC2)cc1)c1ccc(Cl)c(S(=O)(=O)N2CCCC2)c1 | inactive: -5.36% | –
22 | Cc1nc(SCC(=O)N2CCN(c3ccccc3)CC2)c2oc3ccccc3c2n1 | inactive: -6.11% | –
23 | O=C1C(Cc2ccccc2)Nc2ncnc(N3CCCCC3)c2N1Cc1ccc(Cl)cc1 (stereo unspecified) | – | inconclusive [inhibitor, full curve, poor fit]

Row | SMILES | activity change, negative = inhibition | Potency
24 | COc1cc(-c2noc(C)c2-c2ccc(N(C)C)nc2)cc(OC)c1OC | – | inconclusive [inhibitor, full curve, poor fit]
25 | COc1cc(C)c(CN2CCC(Oc3ccc(C(=O)N4CCCC4)cc3)CC2)cc1C | – | inconclusive [inhibitor, partial curve]
26 | CC(=O)Nc1ccc2nc(NC(=O)CCc3ccccc3)sc2c1 | inactive: 1.19% | –
27 | Cc1ccc(NC(=O)COc2nc(C)cs2)cc1 | – | inconclusive [inhibitor, full curve, poor fit]
28 | Cc1ccc(C(=O)Nc2ccc([N+](=O)[O-])cn2)o1 | inactive: -6.3% | –
29 | CC1=CN2C(=N)/C(=C/c3ccco3)C(=O)N=C2S1 | – | inconclusive [inhibitor, single point]
30 | COCCCn1c(C(C)C)nc2oc3cc(OC)ccc3c(=O)c2c1=O | – | inconclusive [inhibitor, partial curve, poor fit]
31 | Cc1nc2cc3nc(C(F)(F)F)[nH]c3cc2[nH]1 | – | inconclusive [inhibitor, full curve]
32 | Cc1cccc(C)c1OCC(=O)Nc1cccc(S(=O)(=O)N2CCCC2)c1 | – | inconclusive [inhibitor, full curve, poor fit]
33 | CCCCN(C)c1ncnc2c1cnn2-c1cccc(Cl)c1 | inactive: 3.8% | –
34 | CCN1C(=NCCc2cccnc2)N[C@@H](c2ccccc2)[C@H](C(=O)OC)[C@H]1C | – | inconclusive [inhibitor, full curve, poor fit]
35 | COC(=O)CCCC(=O)N1CCCC(C(=O)c2ccc(-c3ccccc3)cc2)C1 (stereo unspecified) | – | inconclusive [inhibitor, full curve, poor fit]
36 | CC(C)(C)c1cc(NCCCn2ccnc2)n2ncc(-c3ccccc3)c2n1 | inactive: 10.8% | –
37 | CCOC(=O)C(Cc1ccccc1)(NC(C)=O)C(=O)OCC | – | inconclusive [inhibitor, full curve, poor fit]
38 | COCCNc1nc2sc3c(c2c(=O)n1Cc1ccco1)CCCCC3 | – | inconclusive [inhibitor, partial curve]
39 | O=C(N/N=C/c1cc([N+](=O)[O-])cc([N+](=O)[O-])c1O)/C(=C\c1cccs1)NC(=O)c1ccccc1 | – | inconclusive [inhibitor, partial curve, poor fit]
40 | CCn1c(C(=O)Nc2cc(C)cc(C)c2)cc2sc(Cl)cc21 | inactive: 0.559% | –
41 | O=C(NCc1ccccn1)c1ccc(=O)oc1 | – | inconclusive [inhibitor, full curve, poor fit]
42 | Cc1cccc2nc(CNC(=O)CC3C(=O)NCCN3Cc3cccc(F)c3)cn12 (stereo unspecified) | inactive: -15.9% | –
43 | O=C(CCCC(=O)N1CCN(c2ccccc2F)CC1)c1ccccc1 | – | inconclusive [inhibitor, full curve, poor fit]
44 | NC(=O)c1cc2nc(-c3ccco3)cc(C(F)(F)F)n2n1 | inactive: -6.47% | –
45 | COc1ccc(CCNC(=O)CC2COc3ccccc3O2)cc1OC (stereo unspecified) | – | inconclusive [inhibitor, partial curve]
46 | CCOC(=O)N1CCN(C(=O)c2cccc(S(=O)(=O)Nc3ccccc3Cl)c2)CC1 | – | inconclusive [inhibitor, full curve, poor fit]
